Laboratory results as given in US20110077263A1, “Methods and Compositions of Toll-Like Receptor (TLR) Agonists” (priority 2009, published 2011).

Tested on: LC exposed to HPV16 L1L2 VLP
Assay: In vitro transwell chemotaxis assay to CCL21 (Poly-ICR)
Format: cell-based, human
Conditions: 5 μg/mL Poly-ICR or 20 μg/mL CD40L, 48 h; 250 ng/mL CCL21, 4 h; versus untreated LC or LC exposed to HPV16 alone

B1: CD40L: a protein involved in licensing antigen presenting cells to activate CD8+ T cells (protein, UniProt P29965 113-261, looked up)
CD40 ligand, soluble form: MQKGDQNPQIAAHVISEASSKTTSVLQWAEKGYYTMSNNLVTLENGKQLTVKRQGLYYIYAQVTFCSNREASSQAPFIASLCLKSPGRFERILLRAANTHSSAKPCGQQSIHLGGVFELQPGASVFVNVTDPSQVSHGTGFTSFGLLKL
migration capacity to CCL21: enhanced migration to CCL21
